Experimental data published in paper PMC2946606.
Substitutions are numbered along the chain they refer to. Results are given in words; binding and its absence hold for the method and conditions named. Binding seen in cells or lysates may run through a third protein. Some binding calls cover weakened binding; strength is not graded here. For some assays here: Where a sequence is shown, tags or fusion partners need not be part of it.

By UniProt entry, the sequences of proteins in these tests, tags left out. Where a name states a change or a piece, a line headed by the entry shows the natural chain unless it says otherwise. Residues count along the entry.
UniProt Q925J9, residues 1470-1570: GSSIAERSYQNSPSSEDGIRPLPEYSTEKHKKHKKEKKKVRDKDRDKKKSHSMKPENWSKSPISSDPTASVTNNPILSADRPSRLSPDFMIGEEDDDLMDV
UniProt Q92616: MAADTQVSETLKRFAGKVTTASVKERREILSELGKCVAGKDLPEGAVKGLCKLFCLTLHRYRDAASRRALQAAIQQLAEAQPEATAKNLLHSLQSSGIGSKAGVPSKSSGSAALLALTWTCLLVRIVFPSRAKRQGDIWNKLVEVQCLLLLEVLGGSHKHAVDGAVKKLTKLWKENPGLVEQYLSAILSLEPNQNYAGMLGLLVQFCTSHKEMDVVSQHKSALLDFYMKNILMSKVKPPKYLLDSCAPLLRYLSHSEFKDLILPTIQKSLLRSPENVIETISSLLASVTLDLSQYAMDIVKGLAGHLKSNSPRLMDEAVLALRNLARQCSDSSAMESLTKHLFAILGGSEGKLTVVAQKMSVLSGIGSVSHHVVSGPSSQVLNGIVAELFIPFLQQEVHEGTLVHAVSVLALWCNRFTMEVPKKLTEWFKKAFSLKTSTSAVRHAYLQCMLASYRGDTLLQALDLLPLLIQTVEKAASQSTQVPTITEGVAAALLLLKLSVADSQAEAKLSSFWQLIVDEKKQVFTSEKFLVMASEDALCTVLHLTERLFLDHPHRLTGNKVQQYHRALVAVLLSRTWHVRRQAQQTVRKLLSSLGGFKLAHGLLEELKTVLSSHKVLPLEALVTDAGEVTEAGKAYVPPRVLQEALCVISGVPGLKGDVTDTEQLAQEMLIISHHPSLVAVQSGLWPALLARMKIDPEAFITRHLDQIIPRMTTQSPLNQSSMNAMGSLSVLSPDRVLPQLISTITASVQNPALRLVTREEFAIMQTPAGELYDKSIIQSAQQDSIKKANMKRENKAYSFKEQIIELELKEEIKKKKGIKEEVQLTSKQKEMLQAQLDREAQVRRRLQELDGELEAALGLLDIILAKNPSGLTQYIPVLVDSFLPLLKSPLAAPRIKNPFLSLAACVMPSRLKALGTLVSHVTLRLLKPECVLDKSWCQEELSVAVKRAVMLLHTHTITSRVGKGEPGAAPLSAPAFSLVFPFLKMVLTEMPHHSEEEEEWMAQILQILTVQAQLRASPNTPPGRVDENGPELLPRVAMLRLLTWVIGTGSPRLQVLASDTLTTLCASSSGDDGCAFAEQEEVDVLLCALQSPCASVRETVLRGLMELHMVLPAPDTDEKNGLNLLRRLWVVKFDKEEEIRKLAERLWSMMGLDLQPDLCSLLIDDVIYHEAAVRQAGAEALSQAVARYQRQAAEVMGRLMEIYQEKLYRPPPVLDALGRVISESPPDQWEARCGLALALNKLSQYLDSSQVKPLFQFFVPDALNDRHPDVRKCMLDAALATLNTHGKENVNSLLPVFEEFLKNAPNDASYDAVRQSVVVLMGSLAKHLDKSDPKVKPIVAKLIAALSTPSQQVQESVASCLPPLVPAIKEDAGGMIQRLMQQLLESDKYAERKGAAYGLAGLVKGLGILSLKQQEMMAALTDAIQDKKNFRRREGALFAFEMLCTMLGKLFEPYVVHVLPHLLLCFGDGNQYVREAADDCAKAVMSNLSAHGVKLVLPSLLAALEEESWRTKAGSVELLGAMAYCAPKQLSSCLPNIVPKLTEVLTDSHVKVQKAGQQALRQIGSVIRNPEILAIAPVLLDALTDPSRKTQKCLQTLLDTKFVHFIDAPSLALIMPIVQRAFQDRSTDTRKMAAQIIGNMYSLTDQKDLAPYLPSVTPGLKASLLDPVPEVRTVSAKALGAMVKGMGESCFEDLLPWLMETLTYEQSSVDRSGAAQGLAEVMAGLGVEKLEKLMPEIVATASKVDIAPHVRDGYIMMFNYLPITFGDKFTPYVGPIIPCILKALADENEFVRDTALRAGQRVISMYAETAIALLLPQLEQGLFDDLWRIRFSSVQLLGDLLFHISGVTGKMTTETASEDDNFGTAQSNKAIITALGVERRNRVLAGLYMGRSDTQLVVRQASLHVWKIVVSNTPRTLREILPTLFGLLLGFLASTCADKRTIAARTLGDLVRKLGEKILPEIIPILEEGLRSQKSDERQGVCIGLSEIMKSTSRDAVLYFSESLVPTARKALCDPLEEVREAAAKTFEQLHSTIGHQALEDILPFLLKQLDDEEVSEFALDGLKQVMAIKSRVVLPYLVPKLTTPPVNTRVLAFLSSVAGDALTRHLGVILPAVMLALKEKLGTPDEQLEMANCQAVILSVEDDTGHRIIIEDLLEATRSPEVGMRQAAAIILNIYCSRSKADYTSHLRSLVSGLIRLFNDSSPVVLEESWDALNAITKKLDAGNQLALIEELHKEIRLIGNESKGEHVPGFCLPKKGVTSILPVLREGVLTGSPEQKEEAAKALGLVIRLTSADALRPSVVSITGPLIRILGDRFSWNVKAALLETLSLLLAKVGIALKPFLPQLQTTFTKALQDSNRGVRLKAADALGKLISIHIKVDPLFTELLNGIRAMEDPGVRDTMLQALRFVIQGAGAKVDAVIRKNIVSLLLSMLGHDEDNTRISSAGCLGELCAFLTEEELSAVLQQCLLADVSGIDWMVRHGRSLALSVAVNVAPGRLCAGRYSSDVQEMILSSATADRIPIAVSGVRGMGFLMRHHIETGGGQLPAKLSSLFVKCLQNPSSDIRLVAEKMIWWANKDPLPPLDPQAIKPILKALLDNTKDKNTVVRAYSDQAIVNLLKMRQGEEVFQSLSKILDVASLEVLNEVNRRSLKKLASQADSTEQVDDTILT
UniProt P03372: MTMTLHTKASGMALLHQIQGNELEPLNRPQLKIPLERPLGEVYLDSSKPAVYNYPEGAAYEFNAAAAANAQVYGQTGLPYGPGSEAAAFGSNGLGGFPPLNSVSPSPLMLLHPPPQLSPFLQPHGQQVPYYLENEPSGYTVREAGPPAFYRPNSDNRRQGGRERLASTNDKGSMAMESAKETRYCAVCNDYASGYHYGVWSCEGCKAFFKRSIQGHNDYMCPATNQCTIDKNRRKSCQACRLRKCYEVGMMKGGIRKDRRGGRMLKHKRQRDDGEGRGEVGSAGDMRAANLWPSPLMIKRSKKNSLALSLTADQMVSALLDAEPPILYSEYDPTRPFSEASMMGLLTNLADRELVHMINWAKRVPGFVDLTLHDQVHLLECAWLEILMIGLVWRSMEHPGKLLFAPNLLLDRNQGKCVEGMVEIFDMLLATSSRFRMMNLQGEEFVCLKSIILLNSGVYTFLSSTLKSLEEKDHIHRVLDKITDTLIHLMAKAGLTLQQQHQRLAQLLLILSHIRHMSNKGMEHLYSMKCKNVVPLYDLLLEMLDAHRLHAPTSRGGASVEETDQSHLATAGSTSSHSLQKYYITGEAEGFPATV
UniProt P19793: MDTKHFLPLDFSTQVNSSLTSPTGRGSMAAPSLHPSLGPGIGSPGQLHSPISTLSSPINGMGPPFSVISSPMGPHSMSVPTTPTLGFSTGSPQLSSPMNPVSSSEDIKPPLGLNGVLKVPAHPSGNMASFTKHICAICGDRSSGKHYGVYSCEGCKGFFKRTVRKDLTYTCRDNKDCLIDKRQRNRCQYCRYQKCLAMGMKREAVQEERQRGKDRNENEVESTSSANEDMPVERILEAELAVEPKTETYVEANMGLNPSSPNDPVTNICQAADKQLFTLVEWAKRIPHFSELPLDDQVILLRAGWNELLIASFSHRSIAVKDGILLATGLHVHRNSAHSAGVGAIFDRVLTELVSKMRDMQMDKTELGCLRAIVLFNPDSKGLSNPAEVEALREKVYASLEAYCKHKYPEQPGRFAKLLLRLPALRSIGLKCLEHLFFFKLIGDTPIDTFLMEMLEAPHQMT
UniProt Q15648: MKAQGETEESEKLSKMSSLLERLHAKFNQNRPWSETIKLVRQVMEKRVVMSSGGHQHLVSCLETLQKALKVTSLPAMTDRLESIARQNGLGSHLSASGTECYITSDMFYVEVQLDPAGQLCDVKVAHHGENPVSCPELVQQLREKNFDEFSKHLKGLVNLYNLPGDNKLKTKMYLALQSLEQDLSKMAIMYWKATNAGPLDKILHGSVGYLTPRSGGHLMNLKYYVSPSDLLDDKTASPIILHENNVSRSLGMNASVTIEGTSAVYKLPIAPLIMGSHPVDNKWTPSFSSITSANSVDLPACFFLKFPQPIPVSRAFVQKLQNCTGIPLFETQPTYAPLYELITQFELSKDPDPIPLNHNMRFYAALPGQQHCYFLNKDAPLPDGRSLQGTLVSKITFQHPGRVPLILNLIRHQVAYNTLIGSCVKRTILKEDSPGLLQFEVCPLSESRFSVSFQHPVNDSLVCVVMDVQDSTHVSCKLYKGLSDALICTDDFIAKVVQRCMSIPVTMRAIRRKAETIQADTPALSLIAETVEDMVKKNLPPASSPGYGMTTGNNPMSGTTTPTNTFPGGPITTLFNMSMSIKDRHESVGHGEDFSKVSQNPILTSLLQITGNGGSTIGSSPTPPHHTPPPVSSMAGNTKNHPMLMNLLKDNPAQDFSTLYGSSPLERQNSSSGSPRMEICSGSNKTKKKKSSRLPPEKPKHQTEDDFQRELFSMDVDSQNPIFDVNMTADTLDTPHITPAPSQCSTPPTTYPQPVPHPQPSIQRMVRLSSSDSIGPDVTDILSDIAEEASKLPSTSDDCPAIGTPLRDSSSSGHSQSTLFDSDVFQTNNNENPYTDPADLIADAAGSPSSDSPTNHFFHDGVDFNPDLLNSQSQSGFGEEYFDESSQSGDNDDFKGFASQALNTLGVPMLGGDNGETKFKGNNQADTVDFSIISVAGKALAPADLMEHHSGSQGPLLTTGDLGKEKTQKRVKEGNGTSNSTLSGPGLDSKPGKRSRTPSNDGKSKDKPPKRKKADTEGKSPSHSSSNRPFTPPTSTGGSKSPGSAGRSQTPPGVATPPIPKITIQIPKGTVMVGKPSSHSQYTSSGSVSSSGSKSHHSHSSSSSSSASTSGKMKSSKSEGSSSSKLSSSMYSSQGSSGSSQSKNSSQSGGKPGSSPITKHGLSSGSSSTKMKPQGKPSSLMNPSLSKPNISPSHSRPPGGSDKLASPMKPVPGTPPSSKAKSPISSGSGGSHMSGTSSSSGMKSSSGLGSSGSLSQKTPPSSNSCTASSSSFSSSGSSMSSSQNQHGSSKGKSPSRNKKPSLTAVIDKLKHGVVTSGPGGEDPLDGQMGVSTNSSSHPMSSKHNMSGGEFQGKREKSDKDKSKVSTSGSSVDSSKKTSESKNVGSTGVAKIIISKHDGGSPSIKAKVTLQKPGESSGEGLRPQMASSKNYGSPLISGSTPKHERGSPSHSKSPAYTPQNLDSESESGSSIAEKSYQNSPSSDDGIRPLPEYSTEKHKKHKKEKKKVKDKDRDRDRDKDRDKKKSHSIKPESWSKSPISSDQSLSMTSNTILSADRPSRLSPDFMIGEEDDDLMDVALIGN

Assays:
[1] = biological target: GST-ΔPBP^1470–1570 (UniProt Q925J9); experiment: pull-down; GST or GST-fusion protein on glutathione sepharose 4B beads, incubated with in vitro translated 35S-methionine PRIC295 or its fragments, 4°C, 2 hours, gentle shaker; washed, SDS-PAGE, autoradiography; nuclear receptors without and with receptor-specific ligand (10 μM to 100 μM); only the target purified
[2] = biological target: T1, GST-PPARα (UniProt P23204); experiment: as above
T1 sequence: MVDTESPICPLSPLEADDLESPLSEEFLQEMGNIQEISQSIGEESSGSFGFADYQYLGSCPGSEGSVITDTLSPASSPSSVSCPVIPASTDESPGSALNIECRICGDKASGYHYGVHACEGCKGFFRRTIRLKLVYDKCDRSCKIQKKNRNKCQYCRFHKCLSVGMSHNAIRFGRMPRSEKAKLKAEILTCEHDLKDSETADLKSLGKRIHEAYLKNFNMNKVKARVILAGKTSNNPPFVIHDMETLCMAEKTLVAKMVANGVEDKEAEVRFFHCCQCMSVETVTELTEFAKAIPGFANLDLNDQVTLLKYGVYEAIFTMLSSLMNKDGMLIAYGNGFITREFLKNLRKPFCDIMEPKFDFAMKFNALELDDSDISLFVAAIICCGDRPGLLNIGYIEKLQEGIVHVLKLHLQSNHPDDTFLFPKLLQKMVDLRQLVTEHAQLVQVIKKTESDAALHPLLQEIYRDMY

[3] = biological target: PRIC295-3xFLAG (human) (UniProt Q92616); experiment: co-IP; HeLa cells transfected with PRIC295-3xFLAG; nuclear extract, resin covalently bound with anti-FLAG M2 antibody; immunoblot for PPARα, Med24 and Med1
[4] = biological target: T2, GST-CAR (UniProt O35627); experiment: pull-down; GST or GST-fusion protein on glutathione sepharose 4B beads, incubated with in vitro translated 35S-methionine PRIC295 or its fragments, 4°C, 2 hours, gentle shaker; washed, SDS-PAGE, autoradiography; nuclear receptors without and with receptor-specific ligand (10 μM to 100 μM); only the target purified
T2 sequence: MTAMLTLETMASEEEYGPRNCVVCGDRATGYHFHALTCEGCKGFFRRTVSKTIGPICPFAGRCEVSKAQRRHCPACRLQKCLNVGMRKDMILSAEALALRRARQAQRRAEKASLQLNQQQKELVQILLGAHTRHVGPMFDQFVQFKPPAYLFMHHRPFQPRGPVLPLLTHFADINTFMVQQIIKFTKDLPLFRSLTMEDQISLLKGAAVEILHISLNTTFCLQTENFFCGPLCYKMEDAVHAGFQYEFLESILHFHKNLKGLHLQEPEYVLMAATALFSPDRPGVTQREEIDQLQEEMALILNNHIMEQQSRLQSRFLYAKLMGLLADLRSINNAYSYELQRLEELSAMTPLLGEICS

[5] = biological target: GST-ERα (UniProt P03372); experiment: as above
[6] = biological target: GST-RXRα (UniProt P19793); experiment: as above
[7] = biological target: T3, PPARα in rat liver nuclear extract (rat (endogenous in rat liver)) (UniProt P37230); experiment: pull-down; ciprofibrate-Sepharose, rat liver nuclear extract; the bound protein complex immunoblotted for PPARα, Med24/TRAP100 and Med1
T3 sequence: T1 sequence with I41L, G50S, V85A, I86V, A88T, S96N, V135A, G207A, D265N

ΔPRIC295^1740–2671 (F3), in vitro translated (from UniProt Q92616 1740-2671) (domain or fragment)
binding [1]: binds weakly
binding [2]: no binding

Med1 in HeLa nuclear extract (from UniProt Q15648 1-1581)
binding [3]: binds

ΔPRIC295^840–1815 (F2), in vitro translated (from UniProt Q92616 840-1815) (domain or fragment)
binding [1]: binds weakly
binding [4]: binds
binding [5]: binds
binding [2]: binds
binding [6]: binds

ΔPRIC295^1–915 (F1), in vitro translated (from UniProt Q92616 1-915) (domain or fragment)
binding [1]: binds
binding [2]: binds
binding [6]: binds

B1: Med24/TRAP100 in rat liver nuclear extract (protein, UniProt Q4V8B3 1-987)
chain: MKVVNLKQAILQAWKERWSDYQWAINMKKFFPKGATWDILNLAEALLEQAMIGPSPNPLILSYLKYAISSQMVSYSSVLTAISKFDDFSRDLCVQALLDIMDMFCDRLSCHGKAEECIGLCRALLSALHWLLRCTAASAERLQEGLEAGSAVTGEKQLALCLQCLEKTLSSTKNRALLHIAKLEEASSWTAIEHCLLKLGEILANLSNPQLRSQAEHCGTLIRSIPTMLSVHSEQLHKTGFPTIHALILLEGTMNLTGEMQPLVEQLMMVKRMQHIPTPLFVLEIWKACFVGLIESPEGTQELKWTAFTYLKIPQVLVKLKKYFHGDKDFTEDVNCAFEFLLKLTPLLDKADQRCNCDCTNFLLQECNKQGLLSEASFASLVSKRTADRDPQLKSSENANIQPNPGLILRAEPTVTNILKTMDADHSKSPEGLLGVLGHMLSGKSLDLLLAAAAATGKLKSFARKFINLNEFTTHGSGESTKTASVRALLFDISFLMLCHVAQTYGSEVILSESSSGEEVPFFETWMQTCMPEEGKILNPDHPCFRPDSTKVESLVALLNNSSEMKLVQMKWHEACLSISAAILEILNAWENGVLAFESIQKITDNIKGKVCSLAVCAVAWLVAHVRMLGLDEREKSLQMIRQLAGPLYSENTLQFYNERVVIMNSILEHMCADVLQQTATQIKFPSTGVDTMPYWNLLPPKRPIKEVLTDIFAKVLEKGWVDSRSIHILDTLLHMGGVYWFCNNLIKELLKETRKEHTLRAVQLLYSIFCLDMQQVTLVLLGHILPGLLTDSSKWHSLMDPPGTALAKLAVWCALSSYSSHKGQASSRQKKRHREDIEDYISLFPVEDMQPSKLMRLLSSNEDDASILSSPTDRSMNSSLSASQLHTVNMRDPLNRVLANLFLLISSVLGSRTAGPHTQFVQWFMEECVDCLEQDSRGSILQFMPFTTVSELVKVSAMSSPKVVLAITDLSLPLGRQVAAKAIAAL
binding [7]: binds

B2: PPARα in HeLa nuclear extract (receptor, UniProt Q07869 1-468)
chain: MVDTESPLCPLSPLEAGDLESPLSEEFLQEMGNIQEISQSIGEDSSGSFGFTEYQYLGSCPGSDGSVITDTLSPASSPSSVTYPVVPGSVDESPSGALNIECRICGDKASGYHYGVHACEGCKGFFRRTIRLKLVYDKCDRSCKIQKKNRNKCQYCRFHKCLSVGMSHNAIRFGRMPRSEKAKLKAEILTCEHDIEDSETADLKSLAKRIYEAYLKNFNMNKVKARVILSGKASNNPPFVIHDMETLCMAEKTLVAKLVANGIQNKEAEVRIFHCCQCTSVETVTELTEFAKAIPGFANLDLNDQVTLLKYGVYEAIFAMLSSVMNKDGMLVAYGNGFITREFLKSLRKPFCDIMEPKFDFAMKFNALELDDSDISLFVAAIICCGDRPGLLNVGHIEKMQEGIVHVLRLHLQSNHPDDIFLFPKLLQKMADLRQLVTEHAQLVQIIKKTESDAALHPLLQEIYRDMY
binding [3]: binds

B3: Med24/TRAP100 in HeLa nuclear extract (protein, UniProt O75448 1-989)
chain: MKVVNLKQAILQAWKERWSDYQWAINMKKFFPKGATWDILNLADALLEQAMIGPSPNPLILSYLKYAISSQMVSYSSVLTAISKFDDFSRDLCVQALLDIMDMFCDRLSCHGKAEECIGLCRALLSALHWLLRCTAASAERLREGLEAGTPAAGEKQLAMCLQRLEKTLSSTKNRALLHIAKLEEASSWTAIEHSLLKLGEILANLSNPQLRSQAEQCGTLIRSIPTMLSVHAEQMHKTGFPTVHAVILLEGTMNLTGETQSLVEQLTMVKRMQHIPTPLFVLEIWKACFVGLIESPEGTEELKWTAFTFLKIPQVLVKLKKYSHGDKDFTEDVNCAFEFLLKLTPLLDKADQRCNCDCTNFLLQECGKQGLLSEASVNNLMAKRKADREHAPQQKSGENANIQPNIQLILRAEPTVTNILKTMDADHSKSPEGLLGVLGHMLSGKSLDLLLAAAAATGKLKSFARKFINLNEFTTYGSEESTKPASVRALLFDISFLMLCHVAQTYGSEVILSESRTGAEVPFFETWMQTCMPEEGKILNPDHPCFRPDSTKVESLVALLNNSSEMKLVQMKWHEACLSISAAILEILNAWENGVLAFESIQKITDNIKGKVCSLAVCAVAWLVAHVRMLGLDEREKSLQMIRQLAGPLFSENTLQFYNERVVIMNSILERMCADVLQQTATQIKFPSTGVDTMPYWNLLPPKRPIKEVLTDIFAKVLEKGWVDSRSIHIFDTLLHMGGVYWFCNNLIKELLKETRKEHTLRAVELLYSIFCLDMQQVTLVLLGHILPGLLTDSSKWHSLMDPPGTALAKLAVWCALSSYSSHKGQASTRQKKRHREDIEDYISLFPLDDVQPSKLMRLLSSNEDDANILSSPTDRSMSSSLSASQLHTVNMRDPLNRVLANLFLLISSILGSRTAGPHTQFVQWFMEECVDCLEQGGRGSVLQFMPFTTVSELVKVSAMSSPKVVLAITDLSLPLGRQVAAKAIAAL
binding [3]: binds
